Some of the results follow.
T1: UNK ZnF1-3 (human, UniProt Q9C0B0 31-174)
T1 sequence: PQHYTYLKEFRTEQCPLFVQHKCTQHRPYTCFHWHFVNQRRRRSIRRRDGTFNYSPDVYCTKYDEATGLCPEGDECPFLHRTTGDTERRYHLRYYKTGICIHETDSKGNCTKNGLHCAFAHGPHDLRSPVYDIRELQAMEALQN

B1: chr22:19452774:19452775:-_ENSG00000070010_ENST00000399523|hu_hu|hu_hu_hu_mus_False|18_58 (ssRNA)
RNA: GGGAGUUCUACAGUCCGACGAUCCUUCUCAUUGUAGUUGAUAGCAAUCACAUCUCCAGUCGUCAGACAGGCGAAGUUCCUAAGUGCAUUUUCUAAUACCGCUUUAGGGUUGGUAAUGUCCAGGAAGUCUGGGCUCUGAGGCUGCAACAGAGGAUUGAGCAUCA
B2: chr7:90019433:90019434:+_ENSMUSG00000057706_ENSMUST00000082237|mus_hu|mus_mus_mus_hu_True|98_98 (ssRNA)
RNA: GGGAGUUCUACAGUCCGACGAUCAAAUAAUACAGUGUCUUUGCCAUUAAGGCCAUACUAAAAUAAAAAGAUUUAACCCAGCUACAAAAAAGUUCACUGAACUUAAAUUAAAAUACUUGUAAACAUCUUUGCAAUAUGAAAUAUCAACAGAGGAUUGAGCAUCA
B3: chr12:105536279:105536280:+_ENSG00000136051_ENST00000332180|hu_hu|motif|central (ssRNA)
RNA: GGGAGUUCUACAGUCCGACGAUCAGCACUGAACAUGUAAUGUAAUCUGGCUGCAUCAACAGCAUUUUCAUAUACAUCAUCGGAAUAAAUUGGGAAGACAGCUCGAUGCCAGUAUAAAAAACAACAGUCACAUUGUGUUUGGACCAACAGAGGAUUGAGCAUCA
B4: 111896111_111896319_11175_CDS_ENSMUSG00000018707_ENSMUST00000018851|mouse|control|control (ssRNA)
RNA: GGGAGUUCUACAGUCCGACGAUCCACCCGGGAGCAGAGGUCUGGUGGGAACUCCACAGUUGGGUCUCGGGUAGACAGAAAGAUGACAAAGGAUGGUGACAGGUCUAUGUCUUGGUCACCGAGGGUAAUCAGCACCCUCCCUCCCAACAGAGGAUUGAGCAUCA
B5: chr4:95690885:95690886:+_ENSMUSG00000028572_ENSMUST00000156910|mus_mus|mus_mus_mus_hu_False|1_68 (ssRNA)
RNA: GGGAGUUCUACAGUCCGACGAUCUUUAGAAAAUGUUAAAUACCAUGCUAAAAUAUUUUCAAAGGCUAGUCUUAUUUUACCAGAAGUCACAGGCAAGCAGACACUACAAGAAUAUAUGAAAAUGAAACUCAACAAUAAAAUGUACAACAGAGGAUUGAGCAUCA
B6: chr14:89338683:89338684:+_ENSG00000165533_ENST00000346301|hu_hu|hu_hu_hu_mus_False|48_108 (ssRNA)
RNA: GGGAGUUCUACAGUCCGACGAUCGUGGUUGUUGUUGACCAGGGCCAGCCUGAAGCAUUGGUGGGCCAAGUUUGUAUCUCCGAUUCCCACAGCUACAUGCCCCAGGUUGUACCAGACAUCAGCUGCCUCUUCUUCAUUUUCAGCCAACAGAGGAUUGAGCAUCA
B7: chr14:62207481:62207482:+_ENSG00000100644_ENST00000337138|hu_hu|FALSE|FALSE (ssRNA)
RNA: GGGAGUUCUACAGUCCGACGAUCGGAACGUAACUGGAAGUCAUCAUCCAUUGGGAUAUAGGGAGCUAACAUCUCCAAGUCUAAAUCUGUGUCCUGAGUAGAAAAUGGGUUCUUUGCUUCUGUGUCUUCAGCAAAAAGUUUUUCCAACAGAGGAUUGAGCAUCA
B8: chrX:71549762:71549763:+_ENSMUSG00000019087_ENSMUST00000019231|mus_mus|mus_mus_mus_hu_False|28_38 (ssRNA)
RNA: GGGAGUUCUACAGUCCGACGAUCAAACCCGUGUACUUCUUAUUGUUAGCACAACAUCACCAGAAAACGAUAACGACAGCCAAGCAGGACAGACAGUCAAGUAGUCUUUCCACACCUCCAAACUCAGGGAGCCCUAUAACCUUACAACAGAGGAUUGAGCAUCA
B9: chr7:149068622:149068623:-_ENSMUSG00000025139_ENSMUST00000001950|mus_hu|mus_mus_mus_hu_False|48_108 (ssRNA)
RNA: GGGAGUUCUACAGUCCGACGAUCGUGCAGGUACUGAGUGUGGCUUGUGGUCUGUCCUGGGUUAGAGUUGUUAAUAUCACGGAACAUACCACUUAAGACGUUCCAGUCCCGCCUGACACCUUCAUUCCCAAUGGAGAAGAAAUCCAACAGAGGAUUGAGCAUCA
B10: chr10:126435856:126435857:+_ENSMUSG00000078429_ENSMUST00000105256|mus_hu|FALSE|FALSE (ssRNA)
RNA: GGGAGUUCUACAGUCCGACGAUCAGUGGAAACCCUUACCUGACCCUUUUCCAAACUGGUCCUGUGUCCAAAGCUCCCCCUAUGAGAGGGACACGAACAUCAGGCUUUUGAUUUAGAAGCCCAAUCAGAGAGACACACUGUGUCCAACAGAGGAUUGAGCAUCA
B11: chr12:46205223:46205224:+_ENSG00000189079_ENST00000334344|hu_hu|FALSE|FALSE (ssRNA)
RNA: GGGAGUUCUACAGUCCGACGAUCCUGUGGCUUUGGAUUGCCUGGUGGUACCUCAUCAUCAUCCUCCCCAAAAUGAUGAACUUUCUCGUACUUUUCUAGGUAACGCAAGUAAUACUGUUUUAAAGCAAAGGCAGCGUUAGAACACAACAGAGGAUUGAGCAUCA
B12: chr16:44739181:44739182:-_ENSMUSG00000022668_ENSMUST00000162512|mus_mus|motif|central (ssRNA)
RNA: GGGAGUUCUACAGUCCGACGAUCUCUCACUUCAUGCACUUGUAUAUGCUCUGGACUUGUCAGUUAAAAUAGAAAAGCCAGCGGGCAUCUGUCCUAAUGACCAAUAUGAUUUAAUUCAUUAUUUGUAACCCUUACCCCCAGCGCCAACAGAGGAUUGAGCAUCA
B13: 60646289_60646409_5073_CDS_ENSG00000081913_ENST00000262719|human|control|control (ssRNA)
RNA: GGGAGUUCUACAGUCCGACGAUCGCUCCUUUCCUGGGGCGCAACAGAGCCAUUGGCCCUCCGGCGCCCAAUGGUCCCAACGGCAGAGAAGUCUGCCUUCCUGGGCAGACCUGGCUCAUCCUCGUUGGCGCUGAUGACAAUGCCCAACAGAGGAUUGAGCAUCA
B14: chr10:80924034:80924035:-_ENSMUSG00000034818_ENSMUST00000118763|mus_mus|FALSE|FALSE (ssRNA)
RNA: GGGAGUUCUACAGUCCGACGAUCUUAAAACUGGAACUAUGGCAGCCAUCCGGGGGUUUCUACCUGAUUCGUGGGUUUCCUAAUCGAAGCCAAAAUAGAUAAAGCCCAAAAGACCCAGAUAAUGGACAAAAAACACUGAAGGAUCAACAGAGGAUUGAGCAUCA
B15: chr5:73930785:73930786:-_ENSG00000171617_ENST00000302351|hu_hu|FALSE|FALSE (ssRNA)
RNA: GGGAGUUCUACAGUCCGACGAUCCUUUGCUGUCACAUCUCCCACCUUGGUCCACUGGUAAGUCUCACUGUUGAAUUUAUAAGCAGAGCAGGCAGAGAAUUCUGUAUCACCCCCCAUAAUAAAAAUCUGGUUCCCCAGCACAGCCAACAGAGGAUUGAGCAUCA
B16: chr7:118215947:118215948:-_ENSMUSG00000005610_ENSMUST00000162415|mus_hu|FALSE|FALSE (ssRNA)
RNA: GGGAGUUCUACAGUCCGACGAUCGGUCCUUGCAAUAGACUGCCUCUGCUUGAGAACUUAUGAUGUAAUUAUUGCAUGCUGCUAAUAUACUAUCUAAACAUUAAAGAUACUCCUAAAAUAUUUGAUGGUAGACUAUGAUUAAGACAACAGAGGAUUGAGCAUCA
B17: chr21:34923711:34923712:+_ENSG00000159140_ENST00000381679|hu_hu|motif|central (ssRNA)
RNA: GGGAGUUCUACAGUCCGACGAUCCAUCUGGGAGUCCAUGGUGUUGGACGCUAGCAUUUGGGAGUCCAUGGUGUUGGAUGCGGAUAUAUGGGUCUCCAUGGUGUUAGAAGCUAAUAUAUGGGAUUCUGGGGCCAUCAAGGGAUCCAACAGAGGAUUGAGCAUCA
B18: chr13:100201144:100201145:-_ENSMUSG00000052727_ENSMUST00000064762|mus_mus|FALSE|FALSE (ssRNA)
RNA: GGGAGUUCUACAGUCCGACGAUCCUCUUCCGUUGGCGGGAUCUUAUGCGACAAACUAGAGUCCUGGAUAUCAGAGGGACUAUAGUCCACUUCAGUUGGCCCGUUUUCAGUGAUAUGAAGCACACUGGCACCCAGAGUAGGGUGCAACAGAGGAUUGAGCAUCA
B19: chr7:63200040:63200041:-_ENSMUSG00000030452_ENSMUST00000032635|mus_hu|FALSE|FALSE (ssRNA)
RNA: GGGAGUUCUACAGUCCGACGAUCAUUUCGUUUGUUACUUAAGGAGUUCCUGUGAAUCACAUUGAUCACAGAACAGAGAAACCGCUGGUACUAGAGGCAGAAUGAAGCAGUCUUCAAACCCUAGUCGGCCGGCCGGCCGCGCGGCAACAGAGGAUUGAGCAUCA
B20: chr8:92090715:92090716:+_ENSG00000155100_ENST00000285420|hu_hu|FALSE|FALSE (ssRNA)
RNA: GGGAGUUCUACAGUCCGACGAUCUUUCAGUUGAUCUUCAAUGGCUUUAUACAUACAGUGGCCAUCAGAUGGAAUCUGUUUAAUUUCUAACUGUCUAGCUGCCAAUAUUUGAGCAAGUUUCUCACUUUCCAUAUGUCUGGCUCCCAACAGAGGAUUGAGCAUCA
B21: chr3:10015032:10015033:+_ENSMUSG00000027533_ENSMUST00000029046|mus_mus|mus_mus_mus_hu_True|58_88 (ssRNA)
RNA: GGGAGUUCUACAGUCCGACGAUCGUUUUUACCAUCACAAGUGAUGAUACAGUCUGGCUUGGCCAUUGCGCCCAUUUUCCUAAGAGCUAUUCCCACUCCUAGCUCCUUCAUGUAUUCAUCAAAGCCUUUGCUGUCCACCAGGCGCAACAGAGGAUUGAGCAUCA
B22: chr7:138713503:138713504:-_ENSG00000146858_ENST00000275766|hu_hu|FALSE|FALSE (ssRNA)
RNA: GGGAGUUCUACAGUCCGACGAUCUGUAUUUUCAAGCAUCUUGUGCAGCUUCAUAUGCUUGUAGGUGGAGAUUAUCUGAAAAUUAACAACACUUGGAAUAUUCAGUCCUUGGUCCUGUAGCAGCUUCAAAGAUGCAGCAUGGAUCAACAGAGGAUUGAGCAUCA

Target: T1, UNK ZnF1-3
Assay: nsRBNS (natural sequence RNA bind-n-seq); RBNS binding buffer (assumed for nsRBNS): 25 mM Tris pH 7.5, 150 mM KCl, 3 mM MgCl2, 0.01% Triton X-100, 500 ug/ml BSA, 20 U/ml SUPERase-In, 4 C; UNK is unkempt and MSI1 is Musashi-1; names of the RNAs are library labels; protein concentration not given here; high values mean tight binding

Point of comparison: B1, binding signal 0.653 enrichment R. Against it:
- B2 — higher, 2.83 enrichment R
- B3 — higher, 1.81 enrichment R
- B4 — higher, 1.09 enrichment R
- B5 — higher, 1.09 enrichment R
- B6 — lower, 0.538 enrichment R
- B7 — higher, 1.21 enrichment R
- B8 — higher, 1.3 enrichment R
- B9 — higher, 0.693 enrichment R
- B10 — higher, 0.797 enrichment R
- B11 — higher, 0.846 enrichment R
- B12 — higher, 1.89 enrichment R
- B13 — lower, 0.466 enrichment R
- B14 — higher, 1.52 enrichment R
- B15 — higher, 3.24 enrichment R
- B16 — higher, 0.959 enrichment R
- B17 — higher, 1.77 enrichment R
- B18 — higher, 1.23 enrichment R
- B19 — higher, 1.03 enrichment R
- B20 — higher, 0.677 enrichment R
- B21 — higher, 0.677 enrichment R
- B22 — higher, 0.952 enrichment R
